Measured values from US12227500B2, “Substituted pyrrolo[2,3-b]pyridines for suppressing toxic endoplasmic reticulum stress” (THE TRUSTEES OF COLUMBIA UNIVERSITY IN THE CITY OF NEW YORK, priority 2018, dated 2025).

B1: CT1: neurotrophic factor Cardiotrophin-1 (protein, UniProt Q16619 1-201, looked up)
Cardiotrophin-1: MSRREGSLEDPQTDSSVSLLPHLEAKIRQTHSLAHLLTKYAEQLLQEYVQLQGDPFGLPSFSPPRLPVAGLSAPAPSHAGLPVHERLRLDAAALAALPPLLDAVCRRQAELNPRAPRLLRRLEDAARQARALGAAVEALLAALGAANRGPRAEPPAATASAASATGVFPAKVLGLRVCGLYREWLSRTEGDLGQLLPGGSA
B2: CNTF: ciliary neurotrophic factor (protein, UniProt P26441 1-200, looked up)
Ciliary neurotrophic factor: MAFTEHSPLTPHRRDLCSRSIWLARKIRSDLTALTESYVKHQGLNKNINLDSADGMPVASTDQWSELTEAERLQENLQAYRTFHVLLARLLEDQQVHFTPTEGDFHQAIHTLLLQVAAFAYQIEELMILLEYKIPRNEADGMPINVGDGGLFEKKLWGLKVLQELSQWTVRSIHDLRFISSHQTGIPARGSHYIANNKKM
B3: BDNF: brain-derived neurotrophic factor (protein, UniProt P23560 19-247, looked up)
Neurotrophic factor BDNF …: APMKEANIRGQGGLAYPGVRTHGTLESVNGPKAGSRGLTSLADTFEHVIEELLDEDQKVRPNEENNKDADLYTSRVMLSSQVPLEPPLLFLLEEYKNYLDAANMSMRVRRHSDPARRGELSVCDSISEWVTAADKKTAVDMSGGTVTVLEKVPVSKGQLKQYFYETKCNPMGYTKEGCRGIDKRHWNSQCRTTQSYVRALTMDSKKRIGWRFIRIDTSCVCTLTIKRGR
B4: GDNF: glial cell-derived neurotrophic factor (protein, UniProt P39905 78-211, looked up)
Glial cell line-derived …: SPDKQMAVLPRRERNRQAAAANPENSRGKGRRGQRGKNRGCVLTAIHLNVTDLGLGYETKEELIFRYCSGSCDAAETTYDKILKNLSRNRRLVSDKVGQACCRPIAFDDDLSFLDDNLVYHILRKHSAKRCGCI

test system: Hb9::GFP-hSOD1^G93A motor neurons; details: 7.5 μM CPA; best time point (24 or 48 hrs post CPA) and concentration tested

**Q.** CC1CNCCN1S(=O)(=O)c1cccc2cnccc12.Cl.Cl (stereo not drawn) [H-7 dihydrochloride] was tested. Which “% rescue of CPA toxicity Cell death” value did it give?
**A.** 65.1%

**Q.** What about the “% rescue of CPA toxicity Neurite growth” value of the same molecule?
**A.** 86.72%

**Q.** Which “% rescue of CPA toxicity Cell death” value does the source give for Cc1ccc(/C=C2\CNC/C(=C\c3ccc(C)cc3)C2=O)cc1.Cl [NSC632839] here?
**A.** 3.129%

**Q.** What about the “% rescue of CPA toxicity Neurite growth” value of the same molecule?
**A.** 10.71%

**Q.** With Cc1cc(NC(=O)c2cccc(NC(=O)/C=C/CN(C)C)c2)ccc1Nc1nccc(-c2cccnc2)n1 [JNK-IN-8] as the molecule, how does the “% rescue of CPA toxicity Cell death” value read?
**A.** 43.27%

**Q.** And the “% rescue of CPA toxicity Neurite growth” value?
**A.** 16.24%

**Q.** Which “% rescue of CPA toxicity Cell death” value does the source give for C[C@H](CCC(=O)NCCS(=O)(=O)O)[C@H]1CC[C@H]2[C@@H]3CC[C@@H]4C[C@H](O)CC[C@]4(C)[C@H]3C[C@H](O)[C@]12C [TDCA] here?
**A.** 10.96%

**Q.** And the “% rescue of CPA toxicity Neurite growth” value?
**A.** 65.83%

**Q.** How did the “% rescue of CPA toxicity Cell death” value turn out when C[C@H](CCC(=O)O)[C@H]1CC[C@H]2[C@@H]3CC[C@@H]4C[C@H](O)CC[C@]4(C)[C@H]3C[C@H](O)[C@]12C [DCA] was run?
**A.** 20.51%

**Q.** What about the “% rescue of CPA toxicity Neurite growth” value of the same molecule?
**A.** 33.79%

**Q.** Which results are given for O=S(=O)(NCCNC/C=C/c1ccc(Br)cc1)c1cccc2cnccc12 [Compound H89]?
**A.** % rescue of CPA toxicity Cell death: −30.1%; % rescue of CPA toxicity Neurite growth: −22.31%

**Q.** Which results are given for C[C@H](CCC(=O)O)[C@H]1CC[C@H]2[C@@H]3[C@H](O)C[C@@H]4C[C@H](O)CC[C@]4(C)[C@H]3CC[C@]12C [CDCA]?
**A.** % rescue of CPA toxicity Cell death: 11.22%; % rescue of CPA toxicity Neurite growth: 18.22%

**Q.** How did the “% rescue of CPA toxicity Cell death” value turn out when CC[C@H](C)[C@H](NC(=O)OCc1ccccc1)C(=O)N[C@@H](CCC(=O)OC)C(=O)N[C@H](C(=O)N[C@@H](CC(=O)OC)C(=O)CF)[C@@H](C)O [Caspase-8 inhibitor II] (Cbz-IE(OMe)TD(OMe)-CH2F) was run?
**A.** 2.17%

**Q.** What about the “% rescue of CPA toxicity Neurite growth” value of the same molecule?
**A.** 45.45%

**Q.** Which “% rescue of CPA toxicity Cell death” value does the source give for COc1nccc(-c2c(-c3ccc(F)cc3)ncn2C2CCC(O)CC2)n1 (stereo not drawn) [SB293063] here?
**A.** 39.24%

**Q.** How did the “% rescue of CPA toxicity Cell death” value turn out when C[C@H](CCC(=O)O)[C@H]1CCC2=C3CC[C@@H]4C[C@H](O)CC[C@]4(C)[C@H]3C[C@H](O)[C@@]21C [ApoCA] was run?
**A.** 1.202%

**Q.** And the “% rescue of CPA toxicity Neurite growth” value?
**A.** −4.778%

**Q.** Which “% rescue of CPA toxicity Cell death” value does the source give for B1 here?
**A.** 47.45%

**Q.** And the “% rescue of CPA toxicity Neurite growth” value?
**A.** 62.32%

**Q.** For B2, which “% rescue of CPA toxicity Cell death” value is on record?
**A.** 27.21%

**Q.** And the “% rescue of CPA toxicity Neurite growth” value?
**A.** 50.78%

**Q.** With B3 as the molecule, how does the “% rescue of CPA toxicity Cell death” value read?
**A.** 12.36%

**Q.** What about the “% rescue of CPA toxicity Neurite growth” value of the same molecule?
**A.** 16.59%

**Q.** B4 was tested. Which “% rescue of CPA toxicity Cell death” value did it give?
**A.** 28.47%

**Q.** What about the “% rescue of CPA toxicity Neurite growth” value of the same molecule?
**A.** 43.14%

Peptide text beside a SMILES is read from it. * marks the point of attachment. Cbz = O=C(OCc1ccccc1)*; CH2F = FC*
